Each structure is given as a SMILES string. Some of the results follow. The main result of the screen is listed elsewhere. These columns were measured beside it and carry no call. Most of these compounds were active or inconclusive in the main read-out, so they are no random draw.

The nature of the test: up-regulation of insulin promoter-GFP reporter – imaging, high-content screening, mouse beta cells (AID 1625).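 Also: total cells summed across four imaged fields per well.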 The following applies: MIN6 insulin promoter-GFP reporter, measured here: cytotoxicity, nuclei count, at 5 µM.
In turn, `CCCS(=O)(=O)N1CCC(C(=O)N2CCOCC2)CC1` came in with a cell count of 1500 cells.
For `CC1=CC(=O)C=C(C)C1=NOc1ccccc1[N+](=O)[O-]`, the cell count was 422 cells.
Consider `Cc1c(C(c2ccc([N+](=O)[O-])cc2)c2c(C)n(C)n(-c3ccccc3)c2=O)c(=O)n(-c2ccccc2)n1C`, for which the cell count came to 1360 cells.
Next, `CCN(CC)S(=O)(=O)c1ccc(Oc2ccc(S(=O)(=O)N(CC)CC)cc2)cc1`: 279 cells.
The result for `CCCCCCc1cc2cc(C(=O)Nc3ccccc3)c(=O)oc2cc1O` reads 476 cells; that for `O=S(=O)(NCc1ccncc1)c1ccc(Br)s1`, 282 cells.
The result for `CC1=C/C(=C\C=C(C#N)C#N)N(C)c2ccccc21` reads 870 cells; that for `CCN1/C(=C/c2ccc3cc(C)ccc3[n+]2CC)Sc2ccccc21`, 501 cells.
`O=C1/C(=C/c2ccc(N3CCCC3)cc2)NC(=S)N1C1CC1` had a cell count of 962 cells.
Next, `CC[n+]1c(/C=C/C=C/N(C(C)=O)c2ccccc2)sc2cc(OC)ccc21`: 818 cells; `CCN(CC)c1ccc(/C=C2\SC(=O)N(C(C)C)C2=O)o1`: 1090 cells; `O=C(Nc1cc2c3c(c1)C1CCCC1CN3CC1CCCC21)c1ccc([N+](=O)[O-])cc1` (stereo unspecified): 265 cells.
The molecule `CCN1C/C(=C/c2ccc(OC)c(O)c2)C(=O)/C(=C/c2ccc(OC)c(O)c2)C1` yielded a cell count of 347 cells.
As for `CCNc1ccc(Br)cc(C(=O)/C=C/c2ccc(Cl)cc2Cl)c1=O`, the cell count was determined as 369 cells.
Next, `CN(C)CCOCCOc1ccccc1-c1ccccc1`: 1500 cells; `COc1ccc(C2CC(C(F)(F)F)n3nc(C(=O)NCc4c(C)nn(C)c4C)c(Cl)c3N2)cc1` (stereo unspecified): 212 cells; `O=C1NC(=S)S/C1=C\C=C\c1ccc([N+](=O)[O-])o1`: 325 cells.
Next, `O=C(CCl)Nc1cccc2ncccc12`: 897 cells; `CCN(CC)S(=O)(=O)c1ccc(Cl)c(NC(=O)COC(=O)/C=C/c2cc(OC)c(OC)c(OC)c2)c1`: 461 cells.
The result for `CN(C)c1ccc(/C=C2\C(=N)N3C(=NC2=O)Sc2cc(S(C)(=O)=O)ccc23)cc1` reads 1120 cells; that for `CCN(CC)CCn1c(=S)[nH]c2ccc(Cl)cc2c1=O`, 1270 cells; that for `O=C(NCC(c1cccnc1)N1CCOCC1)NC1CCCCC1` (stereo unspecified), 428 cells.
As for `O=C(O)CC12CSc3[nH]c(=O)sc3C1c1ccccc1OC2=O` (stereo unspecified), the cell count was 785 cells.
Next, `COc1cccc(S(=O)(=O)NCc2ccc(C(=O)Nc3ccc(Cl)c(Cl)c3)cc2)c1`: 839 cells; `COc1ccc(CCNc2ncnc3sccc23)cc1OC`: 433 cells.
The result for `CCOc1ccc(CNc2ncnc(N)n2)cc1` reads 314 cells; that for `O=C(COC(=O)CNC(=O)c1ccccc1)Nc1ccc(Cl)cc1C(F)(F)F`, 336 cells.
In turn, `CCc1ccc(-c2nn(-c3ccccc3)cc2CSC(=N)N)cc1` came in with a cell count of 379 cells.
The result for `Cc1ccc(NS(=O)(=O)c2cc([N+](=O)[O-])ccc2N/N=C/c2sc(N3CCOCC3)nc2-c2ccccc2)c(C)c1` reads 871 cells.
Next, `O=c1cc2oc3cc(O)c(O)cc3c(-c3ccccc3O)c-2cc1O`: 1410 cells; `N#Cc1c(-c2ccco2)cc(C2CC2)nc1SCC(=O)c1ccccc1`: 931 cells.
Next, `CC(C)CN1C(=O)/C(=C/c2c(N3CCc4ccccc4C3)nc3ccccn3c2=O)SC1=S`: 977 cells.
Molecule `COc1ccc(C[C@H]2CN3C(=NC[C@@H]3Cc3ccccc3)N2C[C@H](C)NC(=O)CCC2CCCCC2)cc1` gave a cell count of 464 cells.
Next, `CC(C)OC(=O)C[N+](C)(C)CCN1C(=O)C2C(c3ccccc3)C=CC(c3ccccc3)C2C1=O` (stereo unspecified): 323 cells.
On to `CCCCC1=CC2=CC(=O)C(C)(OC(=O)CC)C(=O)C2=CN1Cc1ccco1` (stereo unspecified), for which the cell count amounted to 498 cells.
As to `CN1CC=C2C(C#N)=C(N)C(C#N)(C#N)C(Cc3ccccc3)C2C1` (stereo unspecified), the cell count worked out at 1870 cells.
Next, `CCN1CC=C2C(C#N)=C(N)C(C#N)(C#N)C(CCc3ccccc3)C2C1` (stereo unspecified): 1320 cells; `O=C(c1cccs1)N(Cc1ccco1)Cc1cc2ccccc2[nH]c1=O`: 490 cells; `COc1ccc2c(c1)[nH]c1c(N3CCN(Cc4ccc5c(c4)OCO5)CC3)ncnc12`: 268 cells.
The result for `O=C(NCc1ccccc1)c1cncc(Br)c1` reads 340 cells.
The result for `CC(O)CSc1nc2c(c(=O)n(C)c(=O)n2C)n1CCCc1ccccc1` (stereo unspecified) reads 407 cells; that for `COc1ccc(-c2nc3cc(NC(=O)Cc4ccc(OC)c(OC)c4)ccc3o2)cc1`, 483 cells.
For `CCCN1C(=O)/C(=C/c2c(NCCCOC(C)C)nc3c(C)cccn3c2=O)SC1=S`, the cell count was 726 cells.
`N#Cc1c(NC(=S)NC(=O)c2ccccc2)sc2c1CCN(CCc1ccccc1)C2`: the cell count came out at 920 cells.
Next, `Cc1cccc2cc(-c3ccccc3)c(-c3ccccc3)c[n+]12`: 391 cells; `COc1cc2c(cc1OC)C1=CC(=O)C(=O)N1C(C)(C)C2`: 1370 cells.
In the case of `Cc1nn(Cc2ccc(C(=O)NC(C)(C)C)o2)c(C)c1Br`, the cell count was 363 cells.
The molecule `N#C/C(=C/c1ccc(N2CCCCC2)o1)C(=O)NCCc1c[nH]c2ccccc12` gave a cell count of 1460 cells.
The result for `COC(=O)c1cnn2c(C(F)(F)F)cc(-c3ccc(F)cc3)nc12` reads 841 cells; that for `COc1ccc(C)cc1NC(=O)CC(NC(C)=O)c1ccccc1` (stereo unspecified), 1340 cells.
With `Cn1c(=O)c2c(nc(NCc3ccc4c(c3)OCO4)n2Cc2ccccc2F)n(C)c1=O`, the cell count came to 434 cells.
Turning to `CCN(CC)c1nc(SCCOC(=O)Nc2ccccc2)nc(N(CC)CC)n1`, the cell count is 484 cells.
The result for `Cc1cccc2sc(NNC(=O)c3ccc4c(c3)OCCO4)nc12` reads 1220 cells.
As for `Cc1ccccc1OCC(O)Cn1c(=N)n(Cc2ccccc2)c2ccccc21` (stereo unspecified), the cell count worked out at 346 cells.
The result for `COC(=O)c1c[nH]n2c(=O)c(Cc3ccc(F)cc3Cl)c(C)nc12` reads 1230 cells; that for `NC(N)=NC(N)=Nc1ccc(SC(F)(F)F)cc1`, 297 cells; that for `Cc1ccc2c(c1)[nH]c1c(N3CCN(Cc4ccc5c(c4)OCO5)CC3)ncnc12`, 262 cells.
The molecule `CCCCCCn1c2c(c(=N)c3c1CCC3)CCC2` came in with a cell count of 247 cells.
Next, `Nc1nc(-c2ccc(Cl)cc2)c(N=Nc2ccc(S(=O)(=O)N3CCOCC3)cc2)s1`: 1260 cells.
Next, `N#C/C(=C\c1ccc(N2CCCCC2)o1)C(=O)Nc1cccc(Br)c1`: 1120 cells.
Next, `COc1cccc(COc2cc3ccccc3nc2C)c1`: 223 cells; `CCOc1cc(CNCCc2ccc(S(N)(=O)=O)cc2)ccc1OCc1ccc(Cl)cc1`: 294 cells; `N#CC(C#N)=C1C=CC=CN1/C(=C\c1ccco1)C(=O)c1ccc(Br)cc1`: 379 cells.
The molecule `COc1nc(Nc2nc3ccccc3c(=O)[nH]2)nc2ccc(C)cc12` registered a cell count of 344 cells.
Next, `O=c1oc2c(CN3CCCCC3)c(O)ccc2cc1-c1nc2ccccc2[nH]1`: 1280 cells; `CCNc1ccc(Br)cc(C(=O)/C=C/c2c(Cl)cccc2Cl)c1=O`: 403 cells.

The values above are taken from PubChem BioAssay AID1625 (Sanford-Burnham Center for Chemical Genomics, 2009).
